The results in this text go back to PubChem BioAssay (NCI).

This assay relates to NCI-H322M lung. Put plainly: NCI tumour cell line growth inhibition, 48 h.

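Each compound was tested at five concentrations against cells in 96-well plates for 48 hours. GI50 marks 50% less growth. TGI is the concentration that stops growth completely.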

Turning to `O=C1Nc2cc(-c3ccc(NS(=O)(=O)c4ccc(-c5ccccc5)cc4)cc3)ccc2/C1=C/c1ccc[nH]1`, the GI50 was 2.14 µM and the TGI amounted to 15.4 µM.
